Data published in patent US20180066029A1 (UNIVERSIT T STUTTGART, published 2018).

Target: recombinant histone H4 (no post-translational modifications) (UniProt P62805)
Assay: far-western blot

B1: artificial protein C7LT (chromodomain of CBX7, artificial linker of 27 amino acids, PHD domain of TAF3, N-terminal GST tag) (designed binder)
chain: [sequence of about 200 residues omitted]SDLEVLFQGPLGSEQVFAVESIRKKRVRKGKVEYLVKWKGWPPKYSTWEPEEHILDPRLVMAYEEKEESSGNSNANSRGPSFSSGLVPLSLRGSHVIRDEWGNQIWICPGCNKPDDGSPMIGCDDCDDWYHWPCVGIMTAPPEEMQWFCPKCANKKKDKKHKKRKHRAH
notes: N-terminal GST tag
**Q.** Does B1 bind?
**A.** no binding

B2: artificial protein MLM (chromodomain of MPP8, artificial linker of 27 amino acids, chromodomain of MPP8, N-terminal GST tag) (designed binder)
chain: [sequence of about 200 residues omitted]SDLEVLFQGPLGSVFEVEKILDMKTEGGKVLYKVRWKGYTSDDDTWEPEIHLEDCKEVLLEFRKKIAESSGNSNANSRGPSFSSGLVPLSLRGSHVFEVEKILDMKTEGGKVLYKVRWKGYTSDDDTWEPEIHLEDCKEVLLEFRKKIAELERPHRD
notes: N-terminal GST tag
**Q.** Does B2 bind?
**A.** no binding
